In PubChem BioAssay AID1347073 (National Center for Advancing Translational Sciences (NCATS), 2019):
Hit rate of the full screen: of about 45,000 compounds, about 200 (0.44%) were called active. Another 7% or so got no clear call; they are omitted. The call rests on the fitted dose curve; in most records, active means well fitted activation curve with a large enough effect; inconclusive means small, poorly fitted or top-dose-only effect; inactive means no such curve, though single readings can be large or run the other way. The list shows a part of the results.

Experiment: qHTS of TDP-43 Inhibitors: NCGC Sytravon Library Screen; further: 0% is about no effect; nearly all actives have a fitted effect of over 55% in size
Conditions: yeast TDP-43 toxicity rescue, BacTiter-Glo growth, 24 h; series mostly up to 46.1 µM; growth rescue (activation): at the top concentration
How it was run: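 TDP-43-expressing yeast, pregrown in raffinose, seeded at OD600 0.02 in galactose medium with compound for 24 hr at 30 deg C. Growth read by BacTiter-Glo luminescence, so rescue of toxicity appears as activation.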

SMILES | growth rescue (activation)
COc1ccccc1S(=O)(=O)Nc1cc(S(=O)(=O)N2CCCCC2)ccc1N1CCOCC1 | inactive: 10.1%
CCOc1ccccc1-n1nnnc1SCC(=O)NC(=O)Nc1ccc2c(c1)OCCO2 | inactive: -6.03%
S=C(c1ccccc1)N1CCN(C(=S)c2ccccc2)CC1 | inactive: 9.06%
N#C/C(=C\c1c[nH]c2ccccc12)C(=O)NC1CC1 | inactive: -8.03%
CC(C)c1ccc(NC(=O)C2=CC=CN3CCS(=O)(=O)N=C23)cc1 | inactive: 19.8%
CCOC(=O)CC1C(=O)NCCN1C(=S)Nc1ccccc1 (stereo unspecified) | inactive: -1.61%
CSc1ccc(C2N=C(c3ccccc3)NO2)cc1 (stereo unspecified) | inactive: 4.71%
O=C(O)c1ccc2ncsc2c1 | inactive: 22.7%
COc1cc(C(=O)N[C@H](C(=O)NC2CCCc3ccccc32)C(C)C)cc(OC)c1OC (stereo partly specified) | inactive: 13.4%
O=C(CCNS(=O)(=O)c1ccc(Cl)cc1)OCC(=O)c1ccc[nH]1 | inactive: -5.36%
O=C(Nc1ccc(F)c(Cl)c1)c1csc(COCCO)n1 | inactive: 0.984%
CCOc1ccc(-c2nnc(SCC(=O)Nc3cccc(Cl)c3C)o2)cc1 | inactive: 5.82%
CC(Sc1nc(N)cc(=O)[nH]1)C(=O)Nc1cccc(Cl)c1 (stereo unspecified) | inactive: 19.4%
O=C(CSc1n[nH]c(-c2cccs2)n1)N1CCOCC1 | inactive: -8.78%
CCc1ccc(NC(=O)C2CC(=O)Nc3ncnn32)cc1 (stereo unspecified) | inactive: -13.9%
COc1cccc(NCc2cc(=O)oc3cc(-c4ccccc4)c(O)cc23)c1 | inactive: 12.1%

SMILES | growth rescue (activation)
Oc1cccc(Nc2nc(-c3ccccc3Cl)nc3ccccc23)c1 | inactive: 12%
COc1ccc(NC(=O)c2cccc(S(=O)(=O)N3CCCC3)c2)cc1OC | inactive: -4.4%
Cc1occc1C(=O)N1N=C(C2CC2)CC1(O)C(F)(F)F (stereo unspecified) | inactive: -12.3%
O=[N+]([O-])c1ccc(-c2cnc(NO)nc2)cc1 | inactive: 10.1%
O=C(O)c1ccc(N=NNc2cccc([N+](=O)[O-])c2)cc1 | inactive: -6.78%
CCc1nc2ccc(C(=O)NCc3ccc4c(c3)OCO4)cn2c1N(CC)CCOC | inactive: 19.6%
CN(Cc1nc2ccc(F)cc2[nH]1)Cc1c(C(=O)N(C)C)nc2ccc(Cl)cn12 | inactive: 4.98%
Cc1c(-c2nc(-c3ccc4c(c3)OCO4)no2)nnn1-c1cccc(C(F)(F)F)c1 | inactive: 11.7%
COc1cccc(NC(=O)C2CCN(c3nnc(-n4c(C)ccc4C)s3)CC2)c1 | inactive: 11.9%
c1ccc(OCc2ccc(CCCN3CCOCC3)cc2)cc1 | inactive: -7.28%
COCc1ccc(C(=O)N2CCCC(C(=O)c3ccc(SC)cc3)C2)s1 (stereo unspecified) | inactive: -9.38%
COc1cccc(CNC(=O)CCC2CCCN(Cc3cc(Cl)ccc3O)C2)c1 (stereo unspecified) | inactive: -6.43%
Cc1ccccc1CNC(=O)CC1C(=O)NCCN1Cc1c(F)cccc1Cl (stereo unspecified) | inactive: -2.59%
Cc1ccc(N=Cc2c(C)[nH]n(-c3ccccc3)c2=O)nc1 | inactive: 23.3%
CCN(CC(=O)Nc1c(F)cccc1F)C(=O)CNC(=O)c1cccc(C)c1 | inactive: -16.3%
